Reference: PubChem BioAssay AID1745845 (National Center for Advancing Translational Sciences (NCATS), 2022)
Several values for one entry are separate records, joined by “and”; a condition that tells them apart may be missing. Equal values may be shown once. Hit rate of the full screen: of about 360,000 compounds, about 2,600 (0.72%) were called active. The inconclusive results got no clear call from the source; some entries with a clear call stand among them for comparison. The call rests on the fitted dose curve; in most records, active means well fitted inhibition curve with a large enough effect; inconclusive means small, poorly fitted or top-dose-only effect; inactive means no such curve, though single readings can be large or run the other way. Potencies beside an inconclusive call are fits to weak or partial responses and may not hold up.

experiment: Primary qHTS for Inhibitors of ATXN expression; settings: HEK-293 ATXN2-luciferase reporter, luminescence, 24 h; series mostly up to 57 µM; further: nearly all actives have a fitted effect of over 55% in size
Method in brief: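 ATXN2-luciferase reporter cells (luciferase flanked by upstream and downstream ATXN2 gene portions) were treated 24 h at 37 °C with compounds at up to 57 uM. SteadyGlo luminescence gave expression; GF-AFC fluorescence gave viability.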
Potency means the concentration at half of the fitted maximal effect; tags describe the fitted curve by direction and shape.

Structure (SMILES)	Potency
COc1cccc(-c2nc(SCC(=O)Nc3ccc4c(c3)OCCO4)c(-c3ccc(C)cc3)[nH]2)c1	inconclusive: 31.6 µM [inhibitor, partial curve, poor fit]
O=C(CCS(=O)(=O)c1ccccc1)Nc1nc(-c2cccs2)cs1	inactive
Cc1ccc(-c2cc(C(=O)N/N=C/c3ccccc3O)n[nH]2)o1	active: 20 µM
CS(=O)(=O)N(Cc1ccccc1)c1ccc(C(=O)Nc2ccc(Cl)cc2)cc1	inconclusive: 39.8 µM [inhibitor, single point]
NC(=S)N/N=C/c1c(O)c(Br)cc2oc3c(c12)CCCC3	inconclusive: 14.1 µM [inhibitor, partial curve, poor fit]
COC(=O)c1ccc(CSc2nc3sc(C(=O)O)c(C)c3c(=O)[nH]2)cc1	inactive
COc1cc(-c2nc(-c3ccc(NC(=O)c4ccc5c(c4)OCO5)cc3)no2)cc(OC)c1OC	inconclusive: 31.6 µM [inhibitor, single point]
CN(C)S(=O)(=O)c1cc(NC(=O)CN2CCN(c3ccccc3F)CC2)ccc1Cl	inactive
Cc1cc(Br)cn2c(Cc3ccsc3)c(-c3ccco3)nc12	inconclusive: 28.2 µM [inhibitor, single point]
Cc1nc(N2CCN(c3ccccn3)CC2)c2c(C)c(C(=O)Nc3ccc(F)cc3F)sc2n1	inconclusive: 28.2 µM [inhibitor, single point]
COc1ccc(-c2cc3nc(C)c(CCC(=O)NC(C)c4ccccc4)c(C)n3n2)c(OC)c1 (stereo not drawn)	inactive
O=C(CN1CCCc2ccccc21)N/N=C/c1ccccc1O	active: 28.2 µM
COc1cccc(NC(=O)CSc2c3c(nc4ccccc24)CCCC3)c1	inconclusive: 39.8 µM [inhibitor, single point] and inconclusive: 31.6 µM [inhibitor, single point]
CS(=O)(=O)c1ccc(C(=O)N2CCN(S(=O)(=O)c3ccc(C4CCCCC4)cc3)CC2)cc1	inconclusive: 22.4 µM [inhibitor, partial curve, poor fit]
Cc1ccc(S/C=C\C(=O)c2ccccc2)cc1	inconclusive: 39.8 µM [inhibitor, single point]
O=C(O)c1c(Cl)c(Cl)c(Cl)c(Cl)c1-c1c2cc(I)c(=O)c(I)c-2oc2c(I)c(O)c(I)cc12	inconclusive: 13.7 µM [inhibitor, partial curve]
COc1ccc(/C=C2\CCCC3C2=NC(=S)NC3c2ccc(OC)cc2)cc1 (stereo not drawn)	inactive
CCOC(=O)c1ccccc1NC(=O)COC(=O)CC(C)(C)CC1=NS(=O)(=O)c2ccccc2N1	inconclusive: 31.6 µM [inhibitor, single point]
